Laboratory results taken from patent US20230265181A1 (CHIA TAI TIANQING PHARMACEUTICAL GROUP, published 2023).
Substitutions are numbered along the chain they refer to.

B1: 1A11-Fc (Fc fusion)
chain: QVQLVESGGGSVQAGGSLRLSCAASGVTFNSACMGWFRQAPGKEREGVARIETGYGGTVYADSVKGRFTISRDNAKNTVYLQMNSLKPEDTAMYYCAAKRSWCTPTWWHELDYNYWGQGTQVTVSS[human IgG1 Fc not spelt out]
notes: also called anti-human BCMA VHH-Fc chimeric antibody 1A11-Fc
B2: 1A10-Fc (Fc fusion)
chain: QVQLVESGGGSVQAGGSLRLSCAASGYSSNVACMAWYRQAPGKEREWVATIVADFGTTNYAASVKGRFTISQDNAKNTVYLQMNSLKPEDSAMYYCAATQRGGIDWCDEINYWGQGTLVTVSS[human IgG1 Fc not spelt out]
notes: also called anti-human BCMA VHH-Fc chimeric antibody 1A10-Fc
B3: 1A1-Fc (Fc fusion)
chain: QVQLVESGGGSVQAGGSLRLSCTASGYTFRGWNKHWYRQAPGKERELVSSIFRDGKTAYTDSVKGRFTISQDNADATVYLQMNSLKPEDTAMYYCKYDLPGSGLPAFWGQGTLVTVSS[human IgG1 Fc not spelt out]
notes: also called anti-human BCMA VHH-Fc chimeric antibody 1A1-Fc
B4: 1B10-Fc (Fc fusion)
chain: B3 chain with Q1E, N73S, A106E
notes: also called anti-human BCMA VHH-Fc chimeric antibody 1B10-Fc

Target: T1, cynomolgus monkey BCMA-His (ACRO, catalog No. BCA-052H7) (cynomolgus monkey, UniProt A0A2K5UD97 1-53)
T1 construct: Bought (ACRO); also called cynomolgus monkey BCMA protein; not shown: His tag
Test: SPR (Biacore T200), antibody captured by anti-hIgG (Fc), cynomolgus BCMA-His as analyte, Langmuir 1:1
Procedure: (§1) The anti-human BCMA VHH-Fc chimeric antibodies were tested for affinity using a biomolecular interaction analysis system (GE, Biacore T200). An anti-hIgG (Fc) antibody (GE, product catalog No. BR-1008-39) was amino-coupled to a CM5 sensor chip. The anti-human BCMA VHH-Fc chimeric antibodies were diluted to 1 μg/mL with a running buffer (137 mM Nacl, 2.7 mM KCl, 10 mM Na₂HPO₄·12H₂O, 1.8 mM KH₂PO₄, 0.05% surfactant P-20 (w/v), pH 7.4), and capture was allowed by passing the dilutions through experimental channels at a flow rate of 30 μL/min. Human BCMA-His (ACRO, product catalog No. BCA-H522y) or cynomolgus monkey BCMA-His (ACRO, catalog No. BCA-052H7) was diluted with the running buffer to 100 nM, 50 nM, 25 nM, 12.5 nmol/L, 6.25 nM and 3.125 nM, and binding was allowed for 200 s by passing the dilutions at a flow rate of 50 μL/min. Then dissociation was allowed for 800 s by stopping sample injection. The data signals were collected by BiaControl Software 2.0 in real time, and analyzed by BiaEvaluation Software 2.0. Fitting was performed using a Langmuir 1:1 model, and the binding rate constant Ka (l/Ms), the dissociation rate constant Kd (l/s) and the equilibrium constant KD (M) were calculated. 1A1-Fc, 1A10-Fc, 1A11-Fc and 1B10-Fc all have relatively high affinity for human BCMA protein. There were cross-reactions of 1A10-Fc and 1A11-Fc with cynomolgus monkey BCMA protein.

T1 sequence (A0A2K5UD97 entry or part of it): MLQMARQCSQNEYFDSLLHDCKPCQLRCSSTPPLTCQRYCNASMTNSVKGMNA

First: B1
Second: B2
The Kd of the first is 4.1-fold higher: 96.1 nM for the first, 23.3 nM for the second.

Going from B1 to B2, the koff falls from 0.0631 s⁻¹ to 0.0294 s⁻¹ (2.1-fold).

First: B1
Second: B2
The kon of the first is 1.9-fold lower: 657000 M⁻¹ s⁻¹ for the first, 1.26e+06 M⁻¹ s⁻¹ for the second.

Target: T2, human BCMA-His protein (ACRO, product catalog No. BCA-H522y) (human, UniProt Q02223 1-54, biotin-conjugated in the competition ELISAs of Examples 5 and 6.1 (sites not given))
T2 construct: Bought (ACRO BCA-H522y); also called recombinant BCMA-His protein; biotin-conjugated BCMA-His; not shown: His tag
T2 sequence (looked up): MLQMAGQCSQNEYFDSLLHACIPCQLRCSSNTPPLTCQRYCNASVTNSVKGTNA
Test: SPR (Biacore T200), antibody captured by anti-hIgG (Fc), human BCMA-His as analyte, Langmuir 1:1
Procedure: as §1

First: B1
Second: B2
The Kd of the first is 2.6-fold higher: 0.812 nM for the first, 0.313 nM for the second.

Compared with B3, B4 is 5-fold lower in Kd: 0.649 nM for the first, 0.129 nM for the second.

First: B1
Second: B2
The koff of the first is 3-fold higher: 0.00141 s⁻¹ for the first, 0.000476 s⁻¹ for the second.

First: B3
Second: B4
The koff of the first is 3.7-fold higher: 0.000742 s⁻¹ for the first, 0.000198 s⁻¹ for the second.

B1 and B2 are within 1.5-fold of each other in kon: 1.74e+06 M⁻¹ s⁻¹ for the first, 1.52e+06 M⁻¹ s⁻¹ for the second.

B3 and B4 are within 1.5-fold of each other in kon: 1.14e+06 M⁻¹ s⁻¹ for the first, 1.53e+06 M⁻¹ s⁻¹ for the second.

Target: T2, human BCMA-His protein (ACRO, product …)
Test: indirect ELISA, human BCMA-His coated at 2 ug/mL
Procedure: 2 μg/mL human BCMA-His protein (ACRO, product catalog No. BCA-H522y) was allowed to coat a high-adsorption microplate, and then the plate was blocked with 3% (w/v) BSA blocking buffer. […] The plate was incubated at 37° C. for 1 h. After the plated was washed, an HRP-conjugated anti-human IgG Fc tag secondary antibody (PerkinElmer, product catalog No. NEF802001EA) was added. The plate was incubated at 37° C. for 0.5 h and then washed 5 times, and a TMB substrate solution (TIANGEN, product catalog No. PA107) was added at 100 μL/well for color development. The light absorption signal values at the wavelength of 450 nm and the reference wavelength of 650 nm were measured. A curve (FIG. 1) was fit, and the EC₅₀ values (Table 1) were calculated.

B1 and B2 are within 1.5-fold of each other in EC50: 0.21 nM for the first, 0.15 nM for the second.

Going from B3 to B4, the EC50 rises from 0.069 nM to 0.131 nM (1.9-fold).

Target: T1, cynomolgus monkey BCMA-His (ACRO, …)
Test: SPR (Biacore T200), antibody captured by anti-hIgG (Fc), cynomolgus BCMA-His as analyte
Procedure: as §1

B3: no binding (tested: 100 nM highest concentration).
B4: no binding (tested: 100 nM highest concentration).
